Measurements from the supplement of paper PMC3334620.
Whole data set: some 33,000 sequences, median “E-score (-0.5 to 0.5)” near -0.056, cut for the highest 2% near 0.38. Some of the results follow.

target: Stb4 (UniProt P50104); assay: PBM E-score (8-mer binding enrichment) (E-score (-0.5 to 0.5)); higher = stronger / more preferred TF binding; most listed sequences are background and not binding sites; settings: protein concentration: 200 nM; construct: GST-DNA-binding domain
In short: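 Detection of bound protein used fluorescent anti-GST, with scans normalised by masliner. The proteins were GST-tagged yeast transcription factors applied at about 100-200 nM to universal all-10-mer Agilent arrays made double-stranded by primer extension. Each ungapped eight-base word, pooled with its reverse complement, was scored with an E-score from the Universal PBM Analysis Suite.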

Sequence	PBM E-score
CCAGGCTA	-0.289
CGACTAGA	-0.0326
ACTCACCG	-0.0421
ACCAGGAC	-0.0487
ACAAGAAA	0.0949
AGAATGAG	-0.25
AGGCGAGA	-0.25
CGTAGGAC	0.00157
CCTTTCTA	-0.14
GACACAAA	0.0254
CAGGCTCG	0.08
TCACGTGA	-0.0301
CTAACTAC	0.00324
GTCCCAAA	-0.205
GCGACTCA	-0.166
GGAACAAA	0.234
GAAAATTA	0.0036
CATTTGAC	-0.192
GTAGGACA	0.0584
CCGACGGA	0.404
ACGGCAAT	0.203
CTTGAGCA	-0.336
ACAATGGG	-0.0175
GCGCTCAC	-0.243
AGTATAAA	0.216

Sequence	PBM E-score
CGTCTGTA	-0.0202
AGGATGAA	-0.0759
ATGGGCAC	-0.0765
GAGCGGGC	0.0332
CTAGGACC	-0.13
AGTAGAGA	-0.173
CCCGACAA	0.3
CTCGGTAC	0.383
TACCGGAA	0.394
CCCGCGTA	0.15
ATCTGTTG	-0.261
TGAGACCA	-0.274
CACGTTAA	-0.193
AGCTGCGG	0.0958
GCGCTATA	-0.0959
ACAGATCG	-0.0736
CTGCACGC	-0.224
AAGCCTAG	-0.115
AAAGCTCA	-0.202
AGACAATC	0.0448
CTTAACAA	-0.0743
GAAACCCA	0.0558
AGTCCCGG	0.304
CGACGCTA	0.0503
CTATATGC	-0.0778

Sequence	PBM E-score
CCGATAAG	0.269
GATCTAGC	-0.134
AGCCGAGG	0.437
AATTTGAA	0.09
CTAGTATC	0.0932
ACATGTTA	-0.0974
AACATACT	-0.131
TAACACCA	-0.097
CATAAGCA	-0.211
GCTTATAA	0.0123
ACCGCAGA	-0.0578
TCTCGAGA	-0.147
AGATCAAT	-0.168
AGGTCTAT	-0.22
TACGCGCA	0.0889
AATACTCA	0.0395
ACGACAGT	-0.256
GTCCCAGA	-0.15
AGTCTGGC	-0.212
CGAACATC	0.247
AAGGCTGG	-0.342
CCCAAAAG	-0.0453
CTCACGAC	-0.305
AGTGGAGA	-0.11
ATAGGGGG	-0.0513

Sequence	PBM E-score
ATAGTGGC	-0.247
AGGTGTGC	-0.0649
ACATTATG	0.0108
AGCCTTAG	-0.182
GATTGAAA	-0.0919
CCTCAGAG	-0.129
CCCGTGCA	0.148
TTCCCAAA	-0.234
CAACGCCA	-0.175
CATGCTGA	-0.159
GCCCTATA	-0.0473
ATCCGGCC	0.394
CTTGACAC	-0.146
ACGTGCGC	-0.0595
TAAAAAGA	-0.0631
AAGGAACG	-0.00649
ATCATACG	-0.126
AGCCGCCG	0.287
ATACTGAA	-0.119
AACACCTG	-0.0332
CATACTGG	0.0369
GTTCTGTA	-0.0957
ATACGAGC	-0.141
AGAACATA	0.155
ACTTCAGG	-0.0807

Sequence	PBM E-score
CTGGAACC	-0.0418
AGTCAGAT	-0.234
AACCAGCT	-0.28
CTTAACGC	-0.14
ACCCCAGG	-0.259
CGTTGACC	-0.197
CAGCTGGC	-0.077
CCAATGGA	-0.0293
GAAGCATC	0.0283
ACGACGAC	-0.129
CAGTGCGC	-0.0842
ATGTGTAA	-0.0992
GCTCGTCC	-0.166
GAACATCA	-0.0493
AGGCTATG	-0.214
GAGTTAAC	-0.0115
CCAGGCGC	-0.216
CGTGATTA	-0.0286
ATGAGCAC	-0.0845
ACGTGAAG	-0.167
CAGCGAGA	-0.0318
CCACGTAC	-0.216
AGCTATAA	-0.175
CGGGGAAG	0.201
GATCCAGC	-0.0148

Sequence	PBM E-score
ATTCTGGC	-0.0557
AAAGAAAC	0.0504
AAAAATCC	0.123
TCAGTGAA	-0.0806
ACCTGGCG	-0.128
ATCCACCC	0.0797
CCATGATC	-0.0827
CAACTGCC	0.0201
GGCCTAAC	0.0628
GCTAGGGA	-0.164
AGATATAA	0.018
ATCGTTCA	-0.122
CTTTTTCA	-0.146
CCAAGACC	-0.0661
CTAAAGAC	-0.251
CCCTAAGA	-0.177
ACTGATTG	-0.188
AACCTATT	0.0723
AGGGAACG	0.0299
GAGTAAAC	0.137
GTTAGAAC	0.0221
AGCTCGGG	0.443
ATTACGTA	0.0546
GCGATGTA	-0.0672
AATCAGTA	-0.0762

Sequence	PBM E-score
AGTCTGTG	-0.229
ACCTCTGC	-0.229
GGACGTGA	-0.0585
AGTACCAG	0.0913
AATGCTTC	0.11
CGTTTGGA	-0.144
CTTTGGCC	0.0279
TAACCGGA	0.355
CACTACAC	-0.153
AAGCTGCG	-0.102
CGGGCATA	0.19
AATGAGAC	-0.15
TCAACCAA	-0.0982
GTGGTTCA	-0.0282
ACCTTGAT	-0.0747
TGATGTAA	-0.174
GCGAACAA	-0.0836
CCGGGGTA	0.155
CCAGGGGG	-0.248
ACTGGCCC	0.0389
AATGTGGG	-0.127
AAGAGACA	0.0356
